Laboratory results reported in the supplement of paper PMC3694890.
± gives the uncertainty stated by the source. Some of the results follow. Phosphotyrosine is written y.

Each binder was assayed against GRB2 (endogenous complexes from cell lysate), P62993 (assay: GRB2 complex binding differential signal (pY peptide minus Ala control peptide) (fluorescence intensity units); higher = stronger GRB2 complex binding). Settings: MCF7.
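Note: phosphopeptide probes on the chip at 1–4 µM, lysate proteins bound in 20 mM Tris pH 7.0 buffer with 140 mM NaCl, 1% Triton X-100 and 5% glycerol.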

Row | Binder | GRB2 complex binding differential signal
1 | yDDDDD [CBL_455/A1] | 169 ± 220
2 | yEGVWK [ABL1_257/A1] | 523 ± 250
3 | ySLAAR [CBL_674/A1] | 2270 ± 640
4 | yMTPSS [CBL_700/A1] | 16400 ± 6200
5 | yEAMYN [CBL_731/A1] | 1190 ± 310
6 | yDVPKP [CBL_774/A1] | 5280 ± 620
7 | yDQLVR [CK22_240/A1] | 1960 ± 650
8 | yGYLKK [CK22_256/A1] | 148 ± 300
9 | yMDQAS [CO3A1_1378/A1] | 1130 ± 780
10 | yVRTLY [CRKL_127/A1] | 542 ± 370
11 | yDFPGN [CRKL_132/A1] | 918 ± 640
12 | yGIPEP [CRKL_198/A1] | 1770 ± 900
13 | ySLTVA [ABL1_264/A1] | 1280 ± 420

Same assay, conditions: MCF10A

Row | Binder | GRB2 complex binding differential signal
14 | yDDDDD [CBL_455/A1] | -120 ± 230
15 | yEGVWK [ABL1_257/A1] | 503 ± 210
16 | ySLAAR [CBL_674/A1] | 896 ± 200
17 | yMTPSS [CBL_700/A1] | 13000 ± 2700
18 | yEAMYN [CBL_731/A1] | 696 ± 500
19 | yDVPKP [CBL_774/A1] | 3110 ± 780
20 | yDQLVR [CK22_240/A1] | 1450 ± 280
21 | yGYLKK [CK22_256/A1] | 124 ± 550
22 | yMDQAS [CO3A1_1378/A1] | 786 ± 200
23 | yVRTLY [CRKL_127/A1] | 520 ± 280
24 | yDFPGN [CRKL_132/A1] | 663 ± 280
25 | yGIPEP [CRKL_198/A1] | 1460 ± 330
26 | ySLTVA [ABL1_264/A1] | 1300 ± 670
27 | yYLILE [TEC_206/A1] | -81.2 ± 410

Same assay, conditions: MDA-MB-231

Row | Binder | GRB2 complex binding differential signal
28 | yDDDDD [CBL_455/A1] | 245 ± 240
29 | yEGVWK [ABL1_257/A1] | 1450 ± 350
30 | ySLAAR [CBL_674/A1] | 801 ± 260
31 | yMTPSS [CBL_700/A1] | 3170 ± 700
32 | yEAMYN [CBL_731/A1] | 1450 ± 650
33 | yDVPKP [CBL_774/A1] | 1360 ± 440
34 | yDQLVR [CK22_240/A1] | 472 ± 340
35 | yGYLKK [CK22_256/A1] | 536 ± 350
36 | yMDQAS [CO3A1_1378/A1] | 1130 ± 530
37 | yVRTLY [CRKL_127/A1] | 632 ± 290
38 | yDFPGN [CRKL_132/A1] | 797 ± 380
39 | yGIPEP [CRKL_198/A1] | 1810 ± 570
40 | ySLTVA [ABL1_264/A1] | 966 ± 350
41 | yYLILE [TEC_206/A1] | 529 ± 300

Same assay, conditions: T47D

Row | Binder | GRB2 complex binding differential signal
42 | yDDDDD [CBL_455/A1] | -4.66 ± 1000
43 | yEGVWK [ABL1_257/A1] | 3610 ± 1200
44 | ySLAAR [CBL_674/A1] | 1130 ± 1200
45 | yMTPSS [CBL_700/A1] | 5800 ± 2200
46 | yEAMYN [CBL_731/A1] | 1380 ± 2200
47 | yDVPKP [CBL_774/A1] | 512 ± 1300
48 | yDQLVR [CK22_240/A1] | 347 ± 1100
49 | yGYLKK [CK22_256/A1] | 275 ± 1300
50 | yMDQAS [CO3A1_1378/A1] | 620 ± 1300
51 | yVRTLY [CRKL_127/A1] | 555 ± 1000
52 | yDFPGN [CRKL_132/A1] | 546 ± 1200
53 | yGIPEP [CRKL_198/A1] | 327 ± 1300
54 | ySLTVA [ABL1_264/A1] | 1430 ± 1200
